Data on 63 compounds can be found in the supplement of paper PMC9446081.

In all, about 39,000 compounds went through this assay and about 220 (0.56%) showed activity. This is one part of the list.
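Further: static incubation at 37 °C against the wild-type strain, values averaged over two biological replicates.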

The test relates to Escherichia coli K-12 BW25113. As to the kind of experiment: relative growth (OD600 normalised to plate interquartile mean) (fraction); higher = less growth inhibition, active = 0.2 or less. The conditions noted are these: 50 µM; LB; incubation time: overnight (16-24 h).
In the case of `C[C@@H]1CN([C@@H](C)CO)C(=O)c2cc(NC(=O)Nc3cccc4ccccc34)ccc2O[C@@H](C)CCCCO[C@@H]1CN(C)S(=O)(=O)c1cccs1`, the relative growth was inactive: 1.01.
Regarding `C[C@@H]1CCCCO[C@@H](CN(C)CC2CCCCC2)[C@H](C)CN([C@H](C)CO)C(=O)c2cc(NC(=O)Nc3ccc(C(F)(F)F)cc3)ccc2O1`, the relative growth was inactive: 0.961.
The result for `OCc1cn(-c2ccccc2)nn1` reads inactive: 0.971; that for `COc1c2ccoc2c(OC)c2oc(=O)ccc12`, inactive: 0.804.
The value for `COCC#Cc1cnc2c(c1)C(=O)N([C@@H](C)CO)C[C@H](C)[C@@H](CN(C)C(=O)CCN1CCCCC1)O2` was inactive: 0.978; that for `COc1ccc(-c2cnc3c(c2)C(=O)N([C@@H](C)CO)C[C@H](C)[C@@H](CN(C)C(=O)Cc2ccncc2)O3)cc1` was inactive: 1.02.
The result for `C[C@H]1CN([C@@H](C)CO)C(=O)c2cccc(NC(=O)Nc3ccc4c(c3)OCO4)c2O[C@@H]1CN(C)Cc1ccc(Cl)c(Cl)c1` reads inactive: 1.
`C[C@@H]1CN([C@@H](C)CO)C(=O)c2ccccc2-c2ccccc2CO[C@H]1CN(C)C(=O)N[C@H](C)c1ccccc1`: the relative growth was inactive: 0.991.
The value for `O=C1NC[C@@H]2CN(C(=O)c3cnccn3)C[C@@H]12` was inactive: 1.01; that for `COc1ccc(NC(=O)Nc2ccc3c(c2)CC(=O)N([C@H](C)CO)C[C@H](C)[C@H](CN(C)C(=O)Nc2ccc(C(F)(F)F)cc2)O3)cc1` was inactive: 0.991; that for `COC(=O)[C@@H](N)c1cccc(Cl)c1` was inactive: 0.896.
As to `C[C@@H]1CN([C@@H](C)CO)C(=O)c2cccc(NC(=O)Nc3ccc(C(F)(F)F)cc3)c2O[C@H]1CN(C)C(=O)Nc1ccc(F)cc1`, the relative growth is inactive: 0.846.
The result for `C[C@@H]1CN([C@@H](C)CO)C(=O)c2cccc(NS(=O)(=O)c3cn(C)cn3)c2O[C@H]1CN(C)Cc1ccccc1` reads inactive: 0.993; that for `COc1ccc2c(=O)ccoc2c1`, inactive: 0.851; that for `COc1ccc(-c2oc3c(CC=C(C)C)c(O[C@@H]4O[C@H](CO)[C@@H](O)[C@H](O)[C@H]4O)cc(O)c3c(=O)c2O[C@@H]2O[C@@H](C)[C@H](O)[C@@H](O)[C@H]2O)cc1`, inactive: 1.13.
The value for `C[C@@H]1CCCCO[C@@H](CN(C)S(=O)(=O)c2ccc(Cl)cc2)[C@@H](C)CN([C@H](C)CO)C(=O)c2cc(NC(=O)Cc3ccccc3)ccc2O1` was inactive: 0.991; that for `CC(C)NC(=O)Nc1ccc2c(c1)C(=O)N([C@@H](C)CO)C[C@H](C)[C@@H](CN(C)CC1CCCCC1)OCCCC[C@H](C)O2` was inactive: 0.971.
For the compound `CCCc1cc(=O)nc(SCC(N)=O)[nH]1`, the relative growth is inactive: 1.
The result for `COc1ccc(S(=O)(=O)Nc2ccc3c(c2)C(=O)N([C@@H](C)CO)C[C@@H](C)[C@H](CN(C)S(=O)(=O)c2cccs2)O3)cc1` reads inactive: 0.987.
In the case of `C[C@@H]1CN([C@@H](C)CO)C(=O)c2cc(C3=CCCC3)cnc2O[C@@H]1CN(C)C(=O)Nc1ccc(C(F)(F)F)cc1`, the relative growth was inactive: 0.969.
Take `CC1CCC2C(C)C(O)OC3OC4(C)CCC1C32OO4` (stereo not drawn): the relative growth is inactive: 0.637.
The value for `C[C@@H]1CN([C@@H](C)CO)C(=O)Cc2cc(NC(=O)Nc3ccccc3)ccc2O[C@H]1CN(C)C(=O)Nc1cccc2ccccc12` was inactive: 0.97; that for `C[C@@H]1CN([C@H](C)CO)C(=O)c2cc(NC(=O)c3ccncc3)ccc2O[C@H]1CN(C)Cc1ccc2c(c1)OCO2` was inactive: 1.01; that for `C[C@H]1CN([C@@H](C)CO)C(=O)CCCn2nncc2CO[C@H]1CN(C)C(=O)Nc1cccc2ccccc12` was inactive: 0.99.
Regarding `C[C@H]1CN([C@@H](C)CO)C(=O)Cc2cc(NC(=O)Cc3cn(C)c4ccccc34)ccc2O[C@H]1CN(C)Cc1ccc(Oc2ccccc2)cc1`, the relative growth was inactive: 1.05.
The value for `CN(C)C(=O)N1C[C@@H]2[C@@H](C1)C(=O)N(C)C21CCN(S(C)(=O)=O)CC1` was inactive: 0.987; that for `C[C@@H]1CCCCO[C@H](CN(C)S(=O)(=O)c2cccs2)[C@@H](C)CN([C@H](C)CO)C(=O)c2cc(NS(C)(=O)=O)ccc2O1` was inactive: 0.98; that for `CCC[C@@H](O)C#Cc1cnc2c(c1)C(=O)N([C@H](C)CO)C[C@H](C)[C@H](CN(C)S(=O)(=O)c1cccs1)O2` was inactive: 0.976.
The value for `C[C@@H]1CCCCO[C@@H](CN(C)C(=O)Nc2cccc3ccccc23)[C@H](C)CN([C@H](C)CO)C(=O)c2cc(NS(=O)(=O)c3cccs3)ccc2O1` was inactive: 1.04; that for `O=C1C[C@H](c2ccc(-c3ccc(C(F)(F)F)cc3)cc2)C2(C(=O)c3ccccc3C2=O)[C@H](c2ccccc2)C1` was inactive: 1.02; that for `COc1ccc(S(=O)(=O)N(C)C[C@H]2Oc3ccc(NC(=O)Nc4c(C)noc4C)cc3CC(=O)N([C@@H](C)CO)C[C@@H]2C)cc1` was inactive: 0.997.
For `Cc1noc(C)c1NC(=O)N(C)C[C@H]1OCCCC[C@H](C)Oc2ccc(NC(=O)Nc3ccccc3)cc2C(=O)N([C@H](C)CO)C[C@@H]1C`, the relative growth was inactive: 1.
The result for `COCCNC(=O)C[C@H]1CC[C@@H]2[C@@H](COc3ccc(NC(=O)Nc4cccc(F)c4)cc3C(=O)N2C)O1` reads inactive: 0.922.
The result for `CN(C)C(=O)C[C@@H]1CC[C@H](NC(=O)C2CCOCC2)[C@H](CO)O1` reads inactive: 0.988; that for `Cc1ccc(S(=O)(=O)N(C)C[C@@H]2Oc3c(NS(=O)(=O)c4ccccc4)cccc3C(=O)N([C@@H](C)CO)C[C@@H]2C)cc1`, inactive: 1.03.
The value for `C[C@H]1CN([C@@H](C)CO)C(=O)Cc2cc(NC(=O)CCN3CCOCC3)ccc2O[C@@H]1CN(C)Cc1ccccc1` was inactive: 1.01; that for `COc1ccc(cc1)CN1C[C@]2(CN(C2)S(=O)(=O)c2cn(cn2)C)c2c([nH]c3cc(ccc23)OC)[C@H]1CO` was inactive: 1.
As for `Cc1nccn1-c1ccc(CN)cc1`, the relative growth was inactive: 0.991.
The value for `C=CC(C1=CC(=O)C=CC1=O)c1ccccc1` (stereo not drawn) was inactive: 1.02.
The result for `COC(=O)CC1C2(C)CC34OC5(C)OC6(C7C(=C(O)C(C)C)C(=O)OC(c8ccoc8)C7(C)C(OC(C)=O)C(OC(C)=O)C6(O5)C13C)C(OC(C)=O)C4(O)C2OC(=O)C(C)C` (stereo not drawn) reads inactive: 0.876.
Regarding `O=C(O)c1ccc(O)c(O)c1`, the relative growth is inactive: 0.98.
Take `CC1(C)OC2CC3C4CC(F)C5=CC(=O)C=CC5(C)C4C(O)CC3(C)C2(C(=O)CO)O1` (stereo not drawn): the relative growth is inactive: 1.07.
For the compound `C=CCC[C@@H](Cc1ccc(F)cc1)C(=O)OC[C@H](Cc1c[nH]c2ccccc12)NC(=O)[C@@H](CC=C)CC(=O)N[C@@H](CO)Cc1ccccc1`, the relative growth was inactive: 1.01.
The result for `CCS(=O)(=O)Nc1ccc2c(c1)C(=O)N(C)[C@H]1CC[C@H](CC(=O)Nc3ccccc3C)O[C@@H]1CO2` reads inactive: 1.01; that for `O=C(CN1CCOCC1)N[C@@H]1CC[C@@H](CCn2cc(C3CCCC3)nn2)O[C@@H]1CO`, inactive: 1.02.
The result for `COC(=O)c1c(CC[C@@H](CO)NC(=O)N[C@H](Cn2cc(C3(O)CCCCC3)nn2)C(C)C)oc(C(C)=O)c1C(=O)OC` reads inactive: 1.
The result for `COc1ccc2c3c([nH]c2c1)[C@@H](CO)N(C[C@]13CCN(CC1)C(=O)c1cccnc1)C(=O)c1cccnc1` reads inactive: 1; that for `C[C@H](CO)N1C[C@H](C)[C@@H](CN(C)C(=O)Nc2cccc3ccccc23)Oc2ccc(NC(=O)Nc3ccccc3)cc2C1=O`, inactive: 1.01; that for `CO[C@@H](C(=O)N(C)C[C@@H]1OCc2ccccc2-c2c(n(C)c3ccccc23)C(=O)N([C@@H](C)CO)C[C@@H]1C)c1ccccc1`, inactive: 1.01.
Take `Cc1nnc(SCC2=C(C(=O)O)N3C(=O)[C@@H](NC(=O)Cn4cnnn4)[C@H]3SC2)s1`: the relative growth is active: 0.0386.
The result for `CC(C)NC(=O)[C@@H](C)n1ncn2cccc2c1=O` reads inactive: 0.801; that for `COC(=O)CCCCCCC(=O)N/N=C/[C@H](O)[C@@H](O)[C@H](O)[C@H](O)CO[C@H]1O[C@H](CO)[C@H](O)[C@H](O)[C@H]1O`, inactive: 1.01; that for `C[C@H]1CN([C@@H](C)CO)C(=O)c2cccc(NC(=O)CCCCCC(=O)Nc3ccccc3N)c2O[C@H]1CN(C)Cc1ccc(Oc2ccccc2)cc1`, inactive: 0.996.
The value for `COc1cccc(S(=O)(=O)N(C)C[C@@H]2Oc3ncc(C#CCN(C)C)cc3C(=O)N([C@@H](C)CO)C[C@@H]2C)c1` was inactive: 1.01; that for `CC(C)NC(=O)Nc1ccc2c(c1)C(=O)N([C@@H](C)CO)C[C@H](C)[C@H](CN(C)C(=O)C1CCCCC1)OCCCC[C@H](C)O2` was inactive: 0.784; that for `CN(C)CCCC[C@@H]1NC(=O)[C@H]2C[C@@H](C(=O)NCCCCCNC(=O)CS)[C@@H](c3ccc(O)cc3)N2C1=O` was inactive: 0.993.
With `C[C@H](CO)N1C[C@H](C)[C@@H](CN(C)S(=O)(=O)c2ccc(F)cc2)OCCCC[C@H](C)Oc2ccc(NC(=O)Nc3cccc4ccccc34)cc2C1=O`, the relative growth is inactive: 0.973.
Turning to `Cc1noc(C)c1NC(=O)Nc1cccc2c1O[C@@H](CN(C)S(=O)(=O)c1ccccc1)[C@@H](C)CN([C@@H](C)CO)C2=O`, the relative growth was inactive: 1.02.
The result for `COc1cccc(S(=O)(=O)Nc2ccc3c(c2)[C@@H]2C[C@@H](CC(=O)NCc4ccccc4F)O[C@@H](CO)[C@@H]2O3)c1` reads inactive: 0.985.
The result for `CC(=O)OC1CCC2(C)C(CCC3C2CCC2(C)C3CC3OC4(CCC(C)CO4)C(C)C32)C1` (stereo not drawn) reads inactive: 1.13; that for `CCCCS(=N)(=O)CC[C@H](N)C(=O)O` (stereo partly drawn), inactive: 1.01; that for `C#CCn1c(=O)c2c(OC)ccnc2n(C)c1=O`, inactive: 1.02.
The value for `O=C(O)/C=C/C(=O)NC1CC1` was inactive: 0.972.
